Binding signal data for 32 sequences are collected here from paper PMC12820563, “FoxP3 forms a head-to-head dimer in vivo and stabilizes its multimerization on adjacent microsatellites”.

This is one part of the list.

The target of this test is T1, MBP-FoxP1dN (Mus musculus, UniProt P58462 326-579).
T1 sequence: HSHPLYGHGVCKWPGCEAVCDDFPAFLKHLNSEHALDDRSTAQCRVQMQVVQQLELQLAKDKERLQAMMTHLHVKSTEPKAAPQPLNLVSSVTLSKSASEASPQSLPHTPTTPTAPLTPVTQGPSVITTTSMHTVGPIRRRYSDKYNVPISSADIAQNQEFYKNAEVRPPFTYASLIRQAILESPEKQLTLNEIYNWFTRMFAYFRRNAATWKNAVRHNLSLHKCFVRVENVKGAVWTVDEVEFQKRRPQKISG
Briefly: PD-seq (MBP pull-down with sequencing); 20 mM Tris-HCl pH 7.5, 100 mM NaCl, 1.5 mM MgCl2, 0.4 uM protein, 0.1 uM dsDNA library, 30 min, room temperature, amylose pull-down; high values mean tight binding. As to conditions: protein: recombinant; tags: His6-MBP; chain copies: 2; dsDNA, one strand shown. In short, it runs like this: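 Binding is the reads-per-million enrichment of pull-down relative to input, pooled across replicates. For this, 0.4 µM His6-MBP-tagged mouse FoxP3 or FoxP1 fragment lacking the N-terminus, made in E. coli, was incubated with 0.1 µM Klenow-filled double-stranded degenerate DNA library for 30 min at room temperature in Tris pH 7.5 buffer with NaCl and MgCl2. Complexes bound to amylose resin were washed three times before proteinase K released the DNA for PCR barcoding and Illumina sequencing.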
“GATGATTGTTCTCCCAGCTGATGAATTGCTAATCTCGAGTAAACAAATTTTCCTAATCTTTCTGTTCAAGCGCCATCTAC”: the binding signal is 1.11 RPM ratio (pull-down/input).

“GATGATTGTTCTCCCAGCTGATGAATTTCTACAATCGAGTAAACAAATTTTCCTAATCTTTCTGTTCAAGCGCCATCTAC”: the binding signal was 1.18 RPM ratio (pull-down/input).

Take “GATGATTGTTCTCCCAGCTGATGAATTGTATTGTTCGAGTAAACAAATTTTCCTAATCTTTCTGTTCAAGCGCCATCTAC”: the binding signal is 2.26 RPM ratio (pull-down/input).

For the sequence “GATGATTGTTCTCCCAGCTGATGAATTACGTGTCTCGAGTAAACAAATTTTCCTAATCTTTCTGTTCAAGCGCCATCTAC”, the binding signal is 1.01 RPM ratio (pull-down/input).

Consider “GATGATTGTTCTCCCAGCTGATGAATTCATTCACTCGAGTAAACAAATTTTCCTAATCTTTCTGTTCAAGCGCCATCTAC”, for which the binding signal is 0.891 RPM ratio (pull-down/input).

On to “GATGATTGTTCTCCCAGCTGATGAATTTGATGGGTCGAGTAAACAAATTTTCCTAATCTTTCTGTTCAAGCGCCATCTAC”, for which the binding signal was 0.768 RPM ratio (pull-down/input).

As for “GATGATTGTTCTCCCAGCTGATGAATTCAAAATGTCGAGTAAACAAATTTTCCTAATCTTTCTGTTCAAGCGCCATCTAC”, the binding signal is 0.941 RPM ratio (pull-down/input).

On to “GATGATTGTTCTCCCAGCTGATGAATTTGTGATCTCGAGTAAACAAATTTTCCTAATCTTTCTGTTCAAGCGCCATCTAC”, for which the binding signal was 1.08 RPM ratio (pull-down/input).

On to “GATGATTGTTCTCCCAGCTGATGAATTCTGCACGTCGAGTAAACAAATTTTCCTAATCTTTCTGTTCAAGCGCCATCTAC”, for which the binding signal is 0.899 RPM ratio (pull-down/input).

In the case of “GATGATTGTTCTCCCAGCTGATGAATTAATTCTCTCGAGTAAACAAATTTTCCTAATCTTTCTGTTCAAGCGCCATCTAC”, the binding signal is 0.881 RPM ratio (pull-down/input).

With “GATGATTGTTCTCCCAGCTGATGAATTCAAATCTTCGAGTAAACAAATTTTCCTAATCTTTCTGTTCAAGCGCCATCTAC”, the binding signal is 0.864 RPM ratio (pull-down/input).

For the sequence “GATGATTGTTCTCCCAGCTGATGAATTGCTATGATCGAGTAAACAAATTTTCCTAATCTTTCTGTTCAAGCGCCATCTAC”, the binding signal is 1.06 RPM ratio (pull-down/input).

On to “GATGATTGTTCTCCCAGCTGATGAATTGTTCTAGTCGAGTAAACAAATTTTCCTAATCTTTCTGTTCAAGCGCCATCTAC”, for which the binding signal was 1.19 RPM ratio (pull-down/input).

Take “GATGATTGTTCTCCCAGCTGATGAATTGTGCAGGTCGAGTAAACAAATTTTCCTAATCTTTCTGTTCAAGCGCCATCTAC”: the binding signal is 0.921 RPM ratio (pull-down/input).

Consider “GATGATTGTTCTCCCAGCTGATGAATTGTAATATTCGAGTAAACAAATTTTCCTAATCTTTCTGTTCAAGCGCCATCTAC”, for which the binding signal was 1.19 RPM ratio (pull-down/input).

On to “GATGATTGTTCTCCCAGCTGATGAATTCCTTCTATCGAGTAAACAAATTTTCCTAATCTTTCTGTTCAAGCGCCATCTAC”, for which the binding signal is 0.862 RPM ratio (pull-down/input).

On to “GATGATTGTTCTCCCAGCTGATGAATTGCGCAAGTCGAGTAAACAAATTTTCCTAATCTTTCTGTTCAAGCGCCATCTAC”, for which the binding signal was 1.08 RPM ratio (pull-down/input).

As to “GATGATTGTTCTCCCAGCTGATGAATTCCACGGTTCGAGTAAACAAATTTTCCTAATCTTTCTGTTCAAGCGCCATCTAC”, the binding signal was 0.845 RPM ratio (pull-down/input).

For the sequence “GATGATTGTTCTCCCAGCTGATGAATTTAATGCCTCGAGTAAACAAATTTTCCTAATCTTTCTGTTCAAGCGCCATCTAC”, the binding signal is 1.04 RPM ratio (pull-down/input).

Consider “GATGATTGTTCTCCCAGCTGATGAATTCGATGAATCGAGTAAACAAATTTTCCTAATCTTTCTGTTCAAGCGCCATCTAC”, for which the binding signal is 0.911 RPM ratio (pull-down/input).

“GATGATTGTTCTCCCAGCTGATGAATTCCCTTAGTCGAGTAAACAAATTTTCCTAATCTTTCTGTTCAAGCGCCATCTAC”: the binding signal is 0.813 RPM ratio (pull-down/input).

Turning to “GATGATTGTTCTCCCAGCTGATGAATTTTTCGTCTCGAGTAAACAAATTTTCCTAATCTTTCTGTTCAAGCGCCATCTAC”, the binding signal was 0.888 RPM ratio (pull-down/input).

Take “GATGATTGTTCTCCCAGCTGATGAATTGTTAGTGTCGAGTAAACAAATTTTCCTAATCTTTCTGTTCAAGCGCCATCTAC”: the binding signal is 1.64 RPM ratio (pull-down/input).

Regarding “GATGATTGTTCTCCCAGCTGATGAATTGCTGCAATCGAGTAAACAAATTTTCCTAATCTTTCTGTTCAAGCGCCATCTAC”, the binding signal was 1.32 RPM ratio (pull-down/input).

For “GATGATTGTTCTCCCAGCTGATGAATTTGCCAAGTCGAGTAAACAAATTTTCCTAATCTTTCTGTTCAAGCGCCATCTAC”, the binding signal was 0.82 RPM ratio (pull-down/input).

Take “GATGATTGTTCTCCCAGCTGATGAATTCCACCTTTCGAGTAAACAAATTTTCCTAATCTTTCTGTTCAAGCGCCATCTAC”: the binding signal was 0.856 RPM ratio (pull-down/input).

For “GATGATTGTTCTCCCAGCTGATGAATTTGAGTGCTCGAGTAAACAAATTTTCCTAATCTTTCTGTTCAAGCGCCATCTAC”, the binding signal was 0.789 RPM ratio (pull-down/input).

On to “GATGATTGTTCTCCCAGCTGATGAATTTTTCTCATCGAGTAAACAAATTTTCCTAATCTTTCTGTTCAAGCGCCATCTAC”, for which the binding signal is 1.03 RPM ratio (pull-down/input).

For the sequence “GATGATTGTTCTCCCAGCTGATGAATTTTGCCGCTCGAGTAAACAAATTTTCCTAATCTTTCTGTTCAAGCGCCATCTAC”, the binding signal was 0.839 RPM ratio (pull-down/input).

Regarding “GATGATTGTTCTCCCAGCTGATGAATTCGAGTATTCGAGTAAACAAATTTTCCTAATCTTTCTGTTCAAGCGCCATCTAC”, the binding signal was 0.938 RPM ratio (pull-down/input).

“GATGATTGTTCTCCCAGCTGATGAATTTTTGGGCTCGAGTAAACAAATTTTCCTAATCTTTCTGTTCAAGCGCCATCTAC”: the binding signal is 0.78 RPM ratio (pull-down/input).

For the sequence “GATGATTGTTCTCCCAGCTGATGAATTCAATTCTTCGAGTAAACAAATTTTCCTAATCTTTCTGTTCAAGCGCCATCTAC”, the binding signal is 0.873 RPM ratio (pull-down/input).
